# From the BET-seq Pho4 binding data (Le et al. 2018)
# The other results are listed elsewhere or left out. The energies were worked out here from pooled read counts, against the library average; single values are noisy.
# Target: T1, Pho4 (S. cerevisiae) (UniProt P07270)
# T1 sequence: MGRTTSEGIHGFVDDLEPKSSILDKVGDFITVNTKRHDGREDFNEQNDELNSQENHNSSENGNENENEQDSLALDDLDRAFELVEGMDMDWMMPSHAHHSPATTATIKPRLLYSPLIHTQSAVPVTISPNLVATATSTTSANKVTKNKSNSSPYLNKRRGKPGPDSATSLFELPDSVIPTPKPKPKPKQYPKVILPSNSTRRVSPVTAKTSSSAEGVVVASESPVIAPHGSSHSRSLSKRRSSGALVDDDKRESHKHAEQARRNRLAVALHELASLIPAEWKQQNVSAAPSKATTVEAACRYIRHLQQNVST
# Assay: relative binding free energy (BET-seq); higher = weaker binding
# Conditions: reference: library average
row,Sequence,relative binding free energy [kcal/mol]
1,ATATACACGTGAGGTA,0.21
2,ATGTTCACGTGGTCGC,0.28
3,GATGGCACGTGTTACG,-0.05
4,GATGACACGTGATGTG,0.12
5,GGGTTCACGTGCGTAG,0.23
6,ATCGTCACGTGTATGT,0.15
7,GGTTTCACGTGAGCGA,0.27
8,ATGTTCACGTGGAGGA,0.29
9,AAGTTCACGTGATCGT,0.18
10,ATATTCACGTGTATCT,0.17
11,ATAAGCACGTGGGATA,-0.14
12,CATTTCACGTGTGTAT,0.2
13,ATGTACACGTGATGGA,0.14
14,ATTGACACGTGCGTGG,0
15,AGAATCACGTGGGTGC,0.07
16,ATTAACACGTGATATG,0.04
17,CTTATCACGTGATATG,0.18
18,TTTGGCACGTGTAACG,0.03
19,AATCGCACGTGTTTGA,0
20,GGGGACACGTGCGTGT,0
21,TGAGGCACGTGTTGCG,0.05
22,GGTGACACGTGAAGGT,0.22
23,CGCGGCACGTGGTGTG,-0.21
24,GTTTACACGTGTGTTG,0.21
25,AGTGACACGTGAGGCA,0.13
26,TATAACACGTGCGGTA,0.05

row,Sequence,relative binding free energy [kcal/mol]
1,GAGGGCACGTGTTTGA,0.05
2,GTTGGCACGTGTTTCC,0.16
3,ATCGTCACGTGTAGGT,0.05
4,ATTGCCACGTGGGGAG,-0.27
5,ATGGTCACGTGAGTAC,0.18
6,GTGGTCACGTGCCTGG,-0.02
7,AATGTCACGTGCTTGT,0.07
8,TTTGTCACGTGCAATA,0.11
9,ATACTCACGTGGTTTG,0.1
10,TGGTGCACGTGAGAGG,0.23
11,GTTTGCACGTGTCGTA,0.1
12,TGTTTCACGTGCGCGG,0.23
13,TCGATCACGTGTAGTT,0.28
14,TGGGGCACGTGTTTAC,-0.1
15,GGGCGCACGTGATGAG,0.21
16,AATTACACGTGGCTGG,0.07
17,TGCTCCACGTGGGTGT,-0.06
18,GAATGCACGTGGTTCA,0.14
19,CAGCGCACGTGGTGGT,-0.18
20,ATTGGCACGTGTATGT,-0.21
21,ATAAGCACGTGTGTGC,-0.18
22,AATTTCACGTGGGCGT,0.23
23,CGGTTCACGTGTTGGT,0.27
24,AGTCGCACGTGGGGTA,-0.29
25,TTTGTCACGTGTTTGA,0.08
26,GTCGACACGTGTGTTT,0.14

row,Sequence,relative binding free energy [kcal/mol]
1,AATTTCACGTGTTTAG,0.17
2,AGTGTCACGTGGAATC,0.26
3,AGTGTCACGTGTTCCG,0.09
4,CGAGTCACGTGAGTTG,0.36
5,CGTTACACGTGTTGTT,0.11
6,AGGGTCACGTGGGCTC,-0.02
7,ATGTGCACGTGTTAGG,-0.02
8,TGGGCCACGTGCGGGA,-0.26
9,CGTCTCACGTGGTATG,0.15
10,TTGGGCACGTGGGCTT,-0.21
11,GGGGTCACGTGCGCGG,0.1
12,TATCGCACGTGGTGCT,-0.11
13,TTAGACACGTGGTCTA,-0.08
14,GGTGGCACGTGGTATG,-0.14
15,ATTTTCACGTGTCGGT,0.36
16,GGGTGCACGTGAGACG,0.19
17,CGTAGCACGTGAGTGA,0.08
18,TATTGCACGTGTAATG,-0.03
19,AAGCGCACGTGGTAGG,-0.15
20,GGTGTCACGTGGTATA,0.17
21,GGGGGCACGTGTTGAC,0.02
22,GGGTGCACGTGCATGA,0.01
23,ATTAGCACGTGTATGT,-0.05
24,AAGTTCACGTGCGTGC,0.18
25,TTGGCCACGTGGGGCA,-0.2
26,TGCATCACGTGGTTTT,0.1

row,Sequence,relative binding free energy [kcal/mol]
1,ATGGACACGTGCGTGA,0
2,AGAGTCACGTGTCGTT,0.06
3,TGGAACACGTGATCGT,0.14
4,GGGTACACGTGACGGC,0.5
5,CGTCGCACGTGTAGGT,-0.18
6,GACGGCACGTGATGAG,0.22
7,TAGTGCACGTGTACTT,-0.02
8,TTTCGCACGTGAGATA,0.28
9,AATTTCACGTGGTTGC,0.22
10,CGTTGCACGTGTATAG,0.12
11,ATGCGCACGTGTGGGC,-0.05
12,TATATCACGTGTTTTA,0.1
13,TTCATCACGTGATTAG,0.1
14,ATTTTCACGTGTAGCA,0.21
15,TTTACCACGTGCGTGT,-0.09
16,GTTGGCACGTGTCTGG,0.05
17,TGGTGCACGTGCGTGA,-0.05
18,GGTAGCACGTGTATTA,0
19,GGTTTCACGTGAAGGT,0.4
20,TTAAACACGTGAAAGG,0.29
21,GCGGTCACGTGTGGTT,0.18
22,GGGTCCACGTGGAGGG,-0.07
23,TTTTACACGTGAACGT,0.17
24,TAAATCACGTGATGAG,0.3
25,ATTGCCACGTGTGTTG,-0.12
26,GGGAGCACGTGCAGGG,-0.02

row,Sequence,relative binding free energy [kcal/mol]
1,TTGAGCACGTGCTAGG,-0.2
2,ATGTGCACGTGTAGGT,0.01
3,GTCTGCACGTGGAAGG,0.02
4,TTGAACACGTGCTGTG,-0.07
5,GGTTTCACGTGTGCTA,0.32
6,TGTGTCACGTGGGTCC,-0.13
7,TTTTGCACGTGAGATA,0.02
8,GTGAGCACGTGAGAGT,0.11
9,CGTGGCACGTGAGAGG,0.13
10,CTGATCACGTGAGGTT,0.45
11,ATCTCCACGTGTAGGG,0.07
12,TAATGCACGTGGAGTC,0.13
13,TACGGCACGTGGGTAA,-0.15
14,GGGTTCACGTGAGGGC,0.42
15,GAGGTCACGTGACGTA,0.4
16,TTATGCACGTGGTGAA,-0.14
17,AGTTGCACGTGGAAGG,-0.06
18,GTCATCACGTGTGTTG,0.17
19,GGGGGCACGTGCAGGC,-0.06
20,GACTACACGTGGGGGT,0.1
21,GTTTGCACGTGGTCCG,0.05
22,TCCTGCACGTGTAGGT,-0.07
23,TTTTTCACGTGTCTGA,0.31
24,TAGGTCACGTGCATTG,0.17
25,GTTGCCACGTGTTCGG,0.11
26,ATTAGCACGTGCGTTG,-0.13

row,Sequence,relative binding free energy [kcal/mol]
1,TGTGACACGTGCTGTT,-0.01
2,TATTTCACGTGCTGTC,0.4
3,GGTCGCACGTGCCGGG,-0.18
4,ATAACCACGTGGGTTG,-0.26
5,CGGTGCACGTGGCGGC,-0.17
6,GGCGTCACGTGTTGTA,0.15
7,CTTGGCACGTGTTTAG,-0.03
8,TCTGGCACGTGTTTCT,0
9,ATGGACACGTGGCGTT,-0.1
10,CGAGGCACGTGGCTGT,0.01
11,TTCATCACGTGAGTGT,0.28
12,TGATTCACGTGTTTAT,0.22
13,TTCATCACGTGGGATT,0
14,TAGGTCACGTGATCGG,0.26
15,TAAGGCACGTGAGTTC,0.08
16,GTTATCACGTGCGGAT,0.08
17,GGAAGCACGTGGGGGT,-0.19
18,GAGGTCACGTGAAGTA,0.45
19,TTGGACACGTGGTGAA,0.04
20,TGGTTCACGTGCGGTA,0.22
21,GTTGGCACGTGTTTTG,0.1
22,GTGAACACGTGCGAGT,0.02
23,TTCGACACGTGTGGGC,0.27
24,AGCCGCACGTGTGTGG,-0.1
25,TAAATCACGTGATAGT,0.1
26,CTATACACGTGGGTTG,-0.24

row,Sequence,relative binding free energy [kcal/mol]
1,GGTATCACGTGATAGG,0.29
2,TCGTTCACGTGTGCAG,0.28
3,AGACTCACGTGTTGTA,0.34
4,GTTGGCACGTGGAGTG,0.03
5,GCGAGCACGTGGTTAT,-0.03
6,GGTATCACGTGGTAGG,0.14
7,CGCGGCACGTGGGGGC,-0.25
8,ATTCGCACGTGTTAAG,0.03
9,GTCGACACGTGTTGAT,0.14
10,GTGCTCACGTGAATGT,0.51
11,GGAAACACGTGGTCGG,-0.06
12,GTAGGCACGTGGTAGT,-0.17
13,CCGGGCACGTGTTAGT,0
14,GATCTCACGTGATGGT,0.22
15,AAGTACACGTGGTCTT,-0.05
16,GGGTTCACGTGTCAGG,0.36
17,GTTGCCACGTGGCTGT,0.07
18,GGATTCACGTGGAAGG,0.24
19,TGTGTCACGTGAGGTG,0.29
20,AGTAACACGTGTTTAG,0.04
21,GGTGGCACGTGAAGAA,0.15
22,ATTGACACGTGAGATT,0.3
23,CTGTTCACGTGCGATG,0.38
24,TTCGACACGTGGTTTG,0.05
25,AGCTGCACGTGATAGG,0.2
26,CTGGCCACGTGTGAGG,0.09

row,Sequence,relative binding free energy [kcal/mol]
1,ATGTGCACGTGCGTTT,-0.14
2,TGTTTCACGTGAGCAT,0.25
3,CATGTCACGTGTGGTT,0.2
4,ATGAGCACGTGGTGTA,-0.15
5,GATTTCACGTGGGCTA,0.33
6,GTGAGCACGTGATAGC,0.17
7,ACGGGCACGTGAGGTT,0.15
8,CGTGGCACGTGGGCGA,-0.22
9,GAATTCACGTGAGGGA,0.56
10,GGTGGCACGTGGTCAA,-0.15
11,CGATGCACGTGCAGGG,-0.07
12,AGGATCACGTGGAATG,0.16
13,ATAGACACGTGAATTG,0.29
14,GTTGGCACGTGGGATT,-0.03
15,TTGTGCACGTGTTCGC,0
16,ATAGTCACGTGATTTC,0.16
17,TGAAGCACGTGTCTAG,0
18,TGTGCCACGTGGAAGT,-0.07
19,CGAAGCACGTGAGGGT,0.08
20,CAGTTCACGTGGGATT,0.16
21,TGACTCACGTGTGATT,0.27
22,TTGTTCACGTGCAATA,0.32
23,CGGTACACGTGTGGTA,0.1
24,ATGTGCACGTGGATAG,-0.15
25,GGTTACACGTGGGTGA,0.04
26,TAATCCACGTGAGGGT,0.15

row,Sequence,relative binding free energy [kcal/mol]
1,TGGGCCACGTGATATG,0.06
2,AAGATCACGTGGGCAT,0.11
3,TGGAGCACGTGGTGTT,-0.09
4,CCGGGCACGTGGTGAT,-0.1
5,TTTAACACGTGGGCTA,-0.1
6,AACGGCACGTGGAGTG,-0.1
7,ATCGGCACGTGTTTAG,-0.03
8,TCTTTCACGTGTTGTG,0.18
9,GGGTTCACGTGAAATT,0.47
10,ATTAGCACGTGTACGG,0.07
11,AGGTTCACGTGAGGCG,0.36
12,GTAGTCACGTGTGAGA,0.15
13,AGGATCACGTGTTAGC,0.21
14,GTATCCACGTGTTTTG,0.01
15,AGGGTCACGTGTTCAT,0.09
16,CTTGTCACGTGATTGT,0.22
17,GGTTTCACGTGAGGCA,0.39
18,GTGTACACGTGTTGTG,0.1
19,TTTTTCACGTGGTGAT,0.31
20,AGTGGCACGTGAACGG,0.16
21,AGGATCACGTGTGCTG,0.14
22,CACGTCACGTGGGGGT,-0.1
